Data as given in PubChem BioAssay AID1963576 (National Center for Advancing Translational Sciences (NCATS), 2024).
Among all 46,000 compounds or so, about 60 (0.1%) were called active. Inconclusive results (about 3%) are left out. Calls follow the shape of the dose curve; as a rule, active = well fitted inhibition curve with a large enough effect; inconclusive = small, poorly fitted or top-dose-only effect; inactive = no such curve, though single readings can be large or run the other way. The list shows a part of the results.

Experiment: Primary qHTS assay for Inhibitors of ovarian cancer metastasis using an organotypic tumor microenvironment (TME) model. Also: nearly all actives have a fitted effect of over 65% in size.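 As to activity change, negative = inhibition: plate controls were DMSO wells for no effect and tomatine positive control wells for full effect.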
Settings: SKOV3ip1-GFP adhesion/invasion on 3D omental model, fluorescence; series mostly up to 45.8 µM; activity change, negative = inhibition: at the top concentration
In short: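 qHTS, 4-pt dose (0.36-46 umol/L); SKOV3ip1-GFP, 1,200 cells/well, no FBS; primary omental fibroblast/mesothelial co-culture 48 h pre-grown; 2 h RT + 16 h 37 C; PBS wash, 4% PFA; GFP count 488/509 nm.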

Activity change, negative = inhibition, inactive:
O=C(Nc1sc2c(c1C(=O)Nc1ccccc1Cl)CCCC2)c1ccccc1F -9.3%
COC(=O)c1c(NC(=O)c2cc(=O)c3ccc(C)c(C)c3o2)sc2c1CCCC2 -6.61%
Cc1ccc(NC(=O)c2c(NC(=O)c3ccco3)sc3c2CCC(C(C)(C)C)C3)c(C)c1 (configuration not stated) 1.56%
COc1cc(OC)c(NC(=O)c2nnn(Cc3ccc(C)cc3)c2N)cc1Cl -6.89%
Cc1ccc(NC(=O)CN2C(=O)CSc3ccc(S(=O)(=O)N4CCCC4)cc32)cc1F -5.34%
CCOc1ccc(NC(=O)c2oc3ccccc3c2NC(=O)Cc2ccc(F)cc2)cc1 -5.27%
CCC(C)c1ccc(OCC(=O)Nc2cccc(-c3nc4ncccc4o3)c2)cc1 (configuration not stated) -14.7%
Cc1ccccc1Cn1cc(CCC(=O)NC(C)c2ccccc2)c2ccccc21 (configuration not stated) 6.67%
O=C(Cn1ncc2c3ccccc3n(Cc3ccc(Cl)cc3)c2c1=O)N1CCCCCC1 2.77%
COc1cccc(-c2cn3c(n2)sc2cc(C(=O)NC4CCCCCC4)ccc23)c1 -2.39%
O=C(Cc1ccc(F)cc1)NC1CC(=O)N(c2ccc3c(c2)OCCO3)C1 (configuration not stated) -9.23%
CCN(CC)c1nn2c(=O)c(C(=O)NCc3ccc(OC)cc3OC)cnc2s1 -3.19%
Clc1ccccc1N1CCN(c2ncnc3c2c(-c2ccccc2)cn3-c2ccccc2)CC1 3.87%
O=C(NCC(c1cccs1)S(=O)(=O)c1cccs1)c1ccccc1F (configuration not stated) -1.57%
Cc1ccccc1NC(=O)CCC(=O)N1CCSc2ccccc21 -5.19%
CC(=O)N1c2ccc(S(=O)(=O)NCC3CCC(C(=O)NC(C)(C)C)CC3)cc2CC1C (configuration not stated) -5.34%
Cc1ccc(S(=O)(=O)N(CC(=O)Nc2ccc(C(C)C)cc2)Cc2ccccc2)cc1 -0.0634%
O=C(Nc1ccc2c(c1)CCCN2C(=O)c1cccs1)c1cccc(C(F)(F)F)c1 -0.82%
Cc1ccc(-n2nc3ccc(NC(=O)c4oc5ccccc5c4C)cc3n2)cc1 -3.97%
COc1ccccc1CNC(=O)c1ccccc1NC(=O)c1nsc2ccccc12 16.6%
Cc1cccc(N2CCN(C(=O)c3cc(S(=O)(=O)N4CCC(C)CC4)cn3C)CC2)c1C -8.51%
Clc1cccc(-n2ncc3c(NC4CCCCC4)ncnc32)c1 -27%
CCOc1ccc(-c2nnc(SCC(=O)NC3CCCC3)nc2-c2ccc(OCC)c(OC)c2)cc1OC 7.53%
CCOC(=O)C1CCN(C(=O)c2cc3ccc4cccnc4c3[nH]2)CC1 1.84%
CCOc1ccc(CCNC(=O)C2CCN(c3ncnc4c3nc3n4CCCCC3)CC2)cc1 -7.16%
O=C(NCCCN1CCN(c2ccccc2)CC1)c1nnc(Cc2c(F)cccc2Cl)o1 -2.01%
O=C(NCc1ccc(Cl)cc1)C(=O)NCC(c1cccs1)S(=O)(=O)c1ccc(Cl)cc1 (configuration not stated) -3.49%
COC(=O)c1sccc1S(=O)(=O)N(CC(=O)NCc1ccccc1)c1ccccc1 0.94%
Cc1ccc(CNC(=O)C(=O)NCC(c2cccs2)S(=O)(=O)c2ccc(C)cc2)cc1 (configuration not stated) -8.15%
COc1ccc(NS(=O)(=O)c2ccc3c(c2)C(C(C)C)C(=O)N3)cc1 (configuration not stated) -1.31%
CCn1c(C)c(C2N3CC4(C)CN2CC(CC)(C3)C4=O)c2ccccc21 (configuration not stated) -0.325%
COc1ccc(NC(=O)CSc2nc3c([nH]c4ccccc43)c(=O)n2C)cc1 14.7%
Cc1ccc(CNC(=O)CSc2ncc(S(=O)(=O)c3ccc(Br)cc3)c(=O)[nH]2)cc1 19.2%
COc1ccc(Nc2ncnc3c2cnn3-c2ccc(C)cc2C)cc1 -5.43%
Cc1nn(C(=O)c2ccccc2F)c(C)c1S(=O)(=O)N1CCOCC1 -11.5%
Cc1c(C(=O)N2CCC(C)CC2)c(S(=O)(=O)NCc2ccccc2)c(C)n1C -3.08%
CC(=O)c1cccc(NC(=O)Cn2c(=O)c(CNc3ccc(C)cc3)cc3cc4c(cc32)OCCO4)c1 -0.437%
CCOc1cc(C(=O)Nc2ccc(Cl)c(-c3nc4ccccc4[nH]3)c2)cc(OCC)c1OCC 2.57%
Cc1ccc(-c2sc(C(=O)Nc3ccc(Br)cc3)cc2CC(=O)O)cc1 5.04%
COc1cc(Cl)c(C)cc1NC(=O)CCn1c(=O)c2cccn2c2cccnc21 -19.3%
CSc1ccc(C2c3[nH]c4ccccc4c3CCN2C(=O)CCc2ccccc2)cc1 (configuration not stated) -1.78%
COc1ccc(-c2cn3cccnc3n2)cc1NC(=O)c1c(F)cccc1F -3.34%
Cc1cccc(CCNC(=O)CCS(=O)(=O)c2cc3c(cc2Cl)NC(=O)CO3)c1 -4.95%
COc1ccc(C)cc1Nc1nc2ccccc2c2nnc(C)n12 -1.92%
CC(C)c1nc2ccc(C(=O)NCc3ccc(N(C)C)cc3)cc2o1 -19.7%
Cc1ccc(-n2nc3c(=O)n(CCCC(=O)NCCc4ccccc4)nc(C)c3c2C)cc1 -11.8%
CCOC(=O)[C@H](CCc1ccccc1)N[C@@H](C)C(=O)N1CCCC1C(=O)O (some centres not stated) 0.298%

outcome, inactive:
COc1ccc(CCNC(=O)CN(c2ccccc2OC)S(=O)(=O)c2ccc(C)cc2)cc1
CCc1ccc(NC(=O)c2cc(S(=O)(=O)NC3CCCC3)ccc2F)cc1
COC(=O)c1cc(NC(=O)c2oc(=O)c3ccccc3c2-c2ccccc2)cc(C(=O)OC)c1
Cc1cc(C)c2oc(-c3cccc(NC(=O)c4ccc(Br)o4)c3)nc2c1
COc1ccc(Br)cc1CNC(=O)Cn1c(=O)c2cccn2c2ccc(F)cc21
CCN(C(=O)c1noc2c1COc1ccc(C)cc1-2)c1cccc(C)c1
CCc1nn(CC(=O)NCCC(C)C)c(=O)c2cc3occc3n12
Nc1c(C(=O)Nc2ccccc2Cl)c2ccccn2c1C(=O)c1ccc(Cl)cc1
COc1cccc(CC(=O)Nc2ccc3nc(N4CCC(C)CC4)cc(C)c3c2)c1
COc1ccccc1C(=O)Nc1ccc2nc(N3CCC(C)CC3)cc(C)c2c1
Cc1ccc(C(=O)Nc2ccc(Br)cc2)cc1S(=O)(=O)N1CCOCC1
CCOc1ccccc1NS(=O)(=O)c1c(C)nc2sccn2c1=O
Cc1cc(C)c(NC(=O)Cn2c(SCC(=O)NCc3ccccc3)nc3ccccc32)c(C)c1
CCn1c(=O)c2cc(C(=O)N(CCCOC(C)C)Cc3ccco3)sc2c2ccccc21
COc1cccc(CNC(=O)C2CCN(S(=O)(=O)c3ccc4c(ccn4C)c3)CC2)c1
